Results: article PMC4336329 (PLoS ONE, 2015)
In all, about 310,000 compounds went through this assay and about 14,000 (4.5%) showed an effect of 50% or more. The effect is printed as a negative number. The list shows a part of the results.

The compounds below were run against human ether-à-go-go-related gene (hERG) potassium channel (human, UniProt Q12809) (assay: primary screen, population patch clamp on CHO cells stably expressing hERG).
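Further: peak tail current of the secondary pulse compared with the same well before compound.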

Chain of human ether-à-go-go-related gene (hERG) potassium channel (Q12809 whole entry, looked up): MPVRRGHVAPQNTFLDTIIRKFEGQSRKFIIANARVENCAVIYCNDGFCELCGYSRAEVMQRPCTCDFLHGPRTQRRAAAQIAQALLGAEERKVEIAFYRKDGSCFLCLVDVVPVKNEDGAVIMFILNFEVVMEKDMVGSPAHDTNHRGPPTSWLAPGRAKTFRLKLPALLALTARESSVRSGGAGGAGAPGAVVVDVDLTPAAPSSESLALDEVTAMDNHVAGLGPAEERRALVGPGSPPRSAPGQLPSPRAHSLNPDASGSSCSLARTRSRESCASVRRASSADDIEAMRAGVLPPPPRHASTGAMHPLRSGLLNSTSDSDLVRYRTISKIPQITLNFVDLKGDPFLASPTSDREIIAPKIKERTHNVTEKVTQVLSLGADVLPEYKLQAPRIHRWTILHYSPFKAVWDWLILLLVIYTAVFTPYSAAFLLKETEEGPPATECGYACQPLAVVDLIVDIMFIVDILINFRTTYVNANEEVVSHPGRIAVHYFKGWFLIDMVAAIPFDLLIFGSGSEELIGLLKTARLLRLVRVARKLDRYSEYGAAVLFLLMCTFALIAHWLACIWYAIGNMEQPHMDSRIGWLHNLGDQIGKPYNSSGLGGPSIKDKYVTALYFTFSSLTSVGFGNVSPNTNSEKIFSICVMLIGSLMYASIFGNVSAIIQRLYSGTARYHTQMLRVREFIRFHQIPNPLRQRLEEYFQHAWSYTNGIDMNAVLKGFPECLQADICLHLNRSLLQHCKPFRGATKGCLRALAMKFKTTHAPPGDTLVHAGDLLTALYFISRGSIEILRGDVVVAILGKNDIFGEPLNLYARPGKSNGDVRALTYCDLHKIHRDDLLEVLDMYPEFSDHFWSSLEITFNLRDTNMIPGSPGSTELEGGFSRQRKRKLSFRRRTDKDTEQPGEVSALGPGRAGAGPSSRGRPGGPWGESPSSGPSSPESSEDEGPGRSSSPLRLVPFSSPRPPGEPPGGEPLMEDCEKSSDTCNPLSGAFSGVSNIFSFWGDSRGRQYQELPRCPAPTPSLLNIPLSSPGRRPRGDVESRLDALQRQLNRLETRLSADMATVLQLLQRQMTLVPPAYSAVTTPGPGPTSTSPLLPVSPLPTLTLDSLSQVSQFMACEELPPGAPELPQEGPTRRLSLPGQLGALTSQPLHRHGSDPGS

Compound | hERG current change (%, negative = inhibition) at 10uM
O=C1COc2ccc(C(=O)CSc3nnc(Cc4cccs4)n3-c3ccc(Cl)cc3)cc2N1 | -9.62%
CCC12CN3CCN(CC(C3)C1O)C2 (centres unmarked) | -6.76%
Cc1cccc(NC(=O)CSc2nc(NS(=O)(=O)c3ccccc3)cc(=O)[nH]2)c1 | 28.4%
Cc1cc(C(=O)N/N=C/c2c[nH]c3ccccc23)cs1 | -8.33%
CCc1nnc(-n2nc(C)cc2-c2ccccc2)n1N.Cl | -3.8%
O=C1[C@H]2[C@H](C=CC[C@H]2C(=O)N2CCOCC2)CCN1Cc1ccc(Cl)c(Cl)c1 | -3.89%
CCN(CC)CCN(C)Cc1ccc(Br)cc1 | -43.2%
CCOC(=O)C1=C(C)NC(C)=C(C(=O)OCC)C1c1ccc([N+](=O)[O-])s1 | -12.9%
Cc1cc(NC2CCCC2)n2nc(C)c(-c3ccccc3)c2n1 | 6.31%
Cn1cnc2cc(NC(=O)c3ccc(Cl)cc3)ccc21 | -18.9%
COC/C=C/C1=CC2=CC(=O)C(C)(OC(=O)c3cnc4ccccc4n3)C(=O)C2=CN1c1ccc(OC)cc1 (centres unmarked) | -4.95%
CCOc1ccc2[nH]c3nc(SCC(=O)NC4CCCC4)nnc3c2c1 | 14.1%
C=CCNC(=S)NNC(=O)CSc1nc2ccccc2s1 | -4.31%
O=C(NC1CCCCC1)C(c1ccco1)N(C(=O)c1csnn1)c1cccc(Cl)c1 (centres unmarked) | 4.93%
CCN(CCCNC(=O)CN(C)S(=O)(=O)c1ccc2c(c1)CCC(=O)N2)c1cccc(C)c1 | -7.06%
O=C(Nc1c(F)cc(F)cc1F)c1cccn(Cc2ccccc2)c1=O | -39.7%
CC(CCc1ccccc1)NC(=O)Cc1ccc(Br)cc1 (centres unmarked) | 8.87%
Cc1nc2ccccc2n1Cc1ccccc1 | 15.8%
CCCc1nc2ccccc2c(=O)n1NC(=O)c1c(O)c2ccccc2[nH]c1=O | 8.41%

Compound | hERG current change (%, negative = inhibition) at 10uM
Cc1ccc(C)c(-n2c(-c3cccnc3)n[nH]c2=S)c1 | 23%
O=C(c1ccncc1)N1CCN(S(=O)(=O)c2ccc(F)cc2)CC1 | 15.2%
Cc1cccc(NC(=O)CN2C(=O)N/C(=C/c3cc(C)n(C(C)C)c3C)C2=O)c1 | 0.258%
COc1ccc2cc(-c3ccn[nH]3)ccc2c1 | 17.6%
CCc1n(CC(O)COC2CCCCC2)c2ccccc2[n+]1C.[I-] (centres unmarked) | 21.4%
COCCC(=O)N1CCC(Oc2ccc(C(=O)N3CCC[C@H]3CO)cc2)CC1 | 23%
O=c1cc(-c2ccccc2)nc(SCc2ccccc2)[nH]1 | 8.53%
CCN1CCN(c2nc3ccccc3nc2C(C#N)C(=O)OCc2ccccc2)CC1 (centres unmarked) | -73.7%
CCN1C(=O)C(O)(CC(=O)c2ccccn2)c2ccccc21 (centres unmarked) | 8.41%
O=C(c1ccc(Cl)c(S(=O)(=O)N2CCCCCC2)c1)N1CCN(c2ccc(O)cc2)CC1 | -50.4%
C=CCn1c(=O)c2ccccc2n2c(SCc3nc4ccccc4s3)nnc12 | -34.4%
COc1ccc2c(c1OC)C(=O)N(C(C)C(=O)O)C2=O (centres unmarked) | 10.1%
CCOC(=O)N1CCN(C2=C(NS(=O)(=O)c3ccc(NC(C)=O)cc3)C(=O)c3ccccc3C2=O)CC1 | -38.3%
COc1cccc(C(=O)C2CCCN(Cc3cccn3-c3cccnc3)C2)c1 (centres unmarked) | -29%
C=CCNC(=O)NC(=O)COC(=O)c1cccnc1SC | -3.33%
CC(C)CCn1c(Oc2ccc(Cl)cc2)nc2c1c(=O)n(C)c(=O)n2C | -15.1%
C/C=C(\C)C(=O)OC(C)(C)[C@@H]1Cc2cc3ccc(=O)oc3cc2O1 | -21.7%
Cc1cc(C)c(S(=O)(=O)N2CCCC(C(=O)N3CCCC3)C2)c(C)c1 (centres unmarked) | -20.8%
O=C(Nc1oc2ccccc2c(=O)c1-c1ccc(Cl)cc1)c1ccco1 | -20.4%

Compound | hERG current change (%, negative = inhibition) at 10uM
CCCNC(=O)c1c(N)n(-c2ccc(S(N)(=O)=O)cc2)c2nc3ccccc3nc12 | 2.48%
COc1cc(-c2cc(-c3ccccc3)nc(SCC(=O)O)c2C#N)cc(OC)c1OC | 28.3%
CCN(CC)c1ccc(/C=C2\SC(=O)N(C(C)C)C2=O)o1 | 11.2%
CC(=O)N1CCc2cc(S(=O)(=O)CCC(=O)NCc3ccco3)ccc21 | 12.5%
CN1CCC(N(C)S(=O)(=O)c2ccc(NC(=O)COc3cccc(Cl)c3)cc2)CC1 | -29.7%
CC(C)(C)NC(=O)Cn1c(SCC(=O)N2CCCCCC2)nc2ccccc21 | 2.81%
Fc1ccc(CSc2nncn2NCc2ccc3c(c2)OCO3)cc1 | -12.6%
Cc1ccc(CN(Cc2ccccc2)C(=S)NCC(=O)NCc2cccnc2)o1 | -29.7%
O=C(N/N=C/c1ccc[nH]1)c1ccccc1O | 41.9%
CCCCC(O)(CCCC)C(=O)NN(C(=O)OCC)c1ccccc1 | 1.32%
Cc1ccc(C)c(N2CCN(S(=O)(=O)c3cn(C)cn3)CC2)c1 | -21.8%
CCN1C(=O)CC(N2CCC(Cc3ccccc3)CC2)C1=O (centres unmarked) | -2.52%
CCc1nc(SCC#N)c(C#N)cc1C | 7.53%
O=C(CN1C(=O)NC(Cc2c[nH]c3ccccc23)C1=O)Nc1ccc(Br)cc1F (centres unmarked) | 5.58%
CCC(=O)N(C)CCc1cc2c(c(OC)c1/C=N/NC(=O)c1ccc(Br)cc1)OCO2 | -44.1%
N#Cc1c(N)nc2c3c(sc(=N)c2c1N)NC(=O)CC3c1c(F)cccc1Cl (centres unmarked) | -15.7%
O=C(CCSCc1ccccc1Cl)NC1CCCC1 | -4.08%
O=C(Nc1nc2n(n1)C(c1ccc(F)cc1)CC(c1ccccc1)N2)c1ccco1 (centres unmarked) | -57.4%
